Experimental data taken from PubChem BioAssay AID624417 (National Center for Advancing Translational Sciences (NCATS), 2012).
About 6,400 (1.6%) of roughly 410,000 compounds were called active. This list was built around the results that the source calls inconclusive (neither active nor inactive); the mix of calls is not that of the screen. Calls come from the whole dose curve; as a rule, active = well fitted inhibition curve with a large enough effect; inconclusive = small, poorly fitted or top-dose-only effect; inactive = no such curve, though single readings can be large or run the other way. Potencies of inconclusive entries are doubtful fits and often do not repeat.
% is set by controls: 0 for no effect and ±100 for the full control effect; potency is the fitted concentration of half-maximal effect; tags give direction and shape of the fitted curve.
Note: nearly all actives have a fitted effect of over 55% in size.

Each molecule was assayed against Glucagon-like peptide 1 receptor (Homo sapiens) (UniProt P43220) (assay: qHTS of GLP-1 Receptor Inverse Agonists (Inhibition Mode)). Conditions: HEK293 GLP-1R CRE-luciferase, luminescence, 24 h, GLP-1R form is constitutively active; activity change, negative = inhibition: at 38.3 µM (top of the series) unless noted.
Chain of UniProt P43220 (P43220 whole entry, looked up): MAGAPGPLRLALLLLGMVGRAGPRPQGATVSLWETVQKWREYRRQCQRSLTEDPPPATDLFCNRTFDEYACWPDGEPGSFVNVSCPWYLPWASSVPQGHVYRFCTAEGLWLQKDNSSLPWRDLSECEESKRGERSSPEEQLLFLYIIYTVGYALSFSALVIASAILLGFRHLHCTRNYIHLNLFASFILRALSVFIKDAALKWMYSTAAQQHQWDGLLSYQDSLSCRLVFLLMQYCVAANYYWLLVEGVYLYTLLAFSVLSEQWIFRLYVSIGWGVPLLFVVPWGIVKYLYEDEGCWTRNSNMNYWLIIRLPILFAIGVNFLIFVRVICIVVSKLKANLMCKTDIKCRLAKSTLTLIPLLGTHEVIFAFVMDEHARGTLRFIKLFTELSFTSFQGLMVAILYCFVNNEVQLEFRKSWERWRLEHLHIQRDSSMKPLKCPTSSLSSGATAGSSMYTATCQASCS
Outline: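 Readout was luciferase luminescence, measured 12 min after detection reagent at room temperature. Beforehand, GLP-1R reporter HEK293 cells had sat 12 h, then received compounds for 24 hr at 37 deg C.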
`CN1OC[C@@H]2CN(C(=O)C(C)(C)C)[C@H](c3ccc(-c4cccnc4)cc3)C[C@@H]21` was tested, and the “activity change, negative = inhibition” value was inactive: 1.33%. `COc1ccc(C(=O)C2CCN(C(=O)c3ccc(C)cc3)CC2)cc1` was tested, and the Potency was inconclusive: 28.2 µM [inhibitor, single point]. For `COc1ccc(N(C(=O)c2ccccc2C)S(=O)(=O)c2cccs2)cc1`, the Potency was inconclusive: 4.47 µM [inhibitor, partial curve, poor fit]. `COc1cccc(/C=N/NC(=O)CN(CCc2ccccc2)S(=O)(=O)c2ccc(NC(C)=O)cc2)c1` was tested, and the Potency was inconclusive: 28.2 µM [inhibitor, single point]. For `Fc1cccc(/C=N/Nc2nc3ccccc3[nH]2)c1`, the “activity change, negative = inhibition” value was inactive: 1.65%. `COc1cccc(-c2nnn(CCC(=O)O)n2)c1` was tested, and the “activity change, negative = inhibition” value was inactive: 0%. In the case of `C(=C\c1ccccc1)/CN1CCN(C(c2ccnc3ccccc23)c2nnnn2-c2ccc3c(c2)OCCO3)CC1` (centres undefined), the Potency is reported as inconclusive: 11.2 µM [inhibitor, partial curve, poor fit]. For `CCOc1cc(C(=S)N2CCOCC2)ccc1OS(=O)(=O)c1ccc(Br)cc1`, the Potency was inconclusive: 12.6 µM [inhibitor, partial curve, poor fit]. For `COc1ccccc1C(=O)Oc1c(Sc2ccccc2)c(C)nn1-c1ccccc1`, the Potency was inconclusive: 11.2 µM [inhibitor, partial curve, poor fit]. `Fc1ccccc1COc1ccc(Br)cc1CNCC1CCCO1` (centres undefined) was tested, and the Potency was inconclusive: 11.2 µM [inhibitor, partial curve, poor fit]. `COc1ccc(S(=O)(=O)N(CC(=O)Nc2ccccc2Cl)Cc2ccccc2)cc1` was tested, and the Potency was inconclusive: 10 µM [inhibitor, partial curve, poor fit]. With `CCOC(=O)C1=CCC(c2ccco2)N(S(=O)(=O)c2ccc(C)cc2)C1` (centres undefined) the Potency was inconclusive: 25.1 µM [inhibitor, single point]. With `CCN(CC)c1nc(C=Cc2ccc(N(C)C)cc2)c2nccnc2n1` the “activity change, negative = inhibition” value was inactive: 0.649%. In the case of `Cc1ccc(NNC(=O)c2c(C)noc2C)cc1Cl`, the Potency is reported as inconclusive: 5.62 µM [inhibitor, full curve, poor fit]. For `CCOC(=O)[C@@H]1[C@H]2COc3cc(OC)ccc3[C@@H]2N2C(=O)N(c3ccc(Br)cc3)C(=O)[C@@]12C`, the Potency was inconclusive: 11.2 µM [inhibitor, single point]. `Cc1ccc(NC(=O)C2CCN(c3ncnc4c3nc3n4CCCCC3)CC2)cc1Cl` was tested, and the Potency was inconclusive: 4.47 µM [inhibitor, full curve, poor fit]. `Cc1ccc(CCNC(=O)CN2C(=O)COc3ccc(S(=O)(=O)N4CCCCCC4)cc32)cc1` was tested, and the Potency was inconclusive: 11.2 µM [inhibitor, partial curve]. With `CC(O)(c1ccccc1)c1nc(-c2cccc(C(=O)O)c2)cs1` (centres undefined) the “activity change, negative = inhibition” value was inactive: 24.6%. For `CC(OC(=O)C1CCC(=O)N1)C(=O)Nc1cc(Cl)cc(Cl)c1` (centres undefined), the Potency was inconclusive: 17.8 µM [inhibitor, partial curve, poor fit]. In the case of `O=C(CNC(=S)N(Cc1ccccc1)Cc1cccnc1)NC1CC1`, the “activity change, negative = inhibition” value is reported as inactive: -4.8%. For `O=C1CS(=O)(=O)C2(C(=O)N(Cc3ccccc3)c3ccccc32)N1c1ccc(F)c(Cl)c1` (centres undefined), the Potency was inconclusive: 28.2 µM [inhibitor, single point]. For `COc1cc(NC(=O)CCN2CCN(c3ccccc3F)CC2)cc(OC)c1`, the Potency was inconclusive: 7.08 µM [inhibitor, partial curve, poor fit]. `CCn1c(CSc2nc3ccccc3s2)nc2ccccc21` was tested, and the “activity change, negative = inhibition” value was inactive: 0%. For `COc1ccc(/C=C2\Cc3ccccc3C2=O)cc1OC`, the “activity change, negative = inhibition” value was inactive: 85.9%. In the case of `Cc1ccc2nc(N(CCCN(C)C)C(=O)c3ccc4ncsc4c3)sc2c1`, the Potency is reported as inconclusive: 5.62 µM [inhibitor, full curve, poor fit]. In the case of `COc1ccc([N+](=O)[O-])cc1/C=N/NC(=O)CNC(=O)c1cccc(F)c1`, the “activity change, negative = inhibition” value is reported as inactive: -0.626%. In the case of `O=C(O)c1ccc(N/N=C/c2cn(Cc3ccccc3F)c3ccccc23)cc1`, the Potency is reported as inconclusive: 10 µM [inhibitor, partial curve]. `COc1ccc(-n2cc(CN(C)C3CCOCC3)c(-c3cccc(F)c3)n2)cc1` was tested, and the activity change, negative = inhibition was inconclusive: -30.2% [inhibitor] [at 0.307 µM]. For `CCOc1ccc(NC(=O)CC2S/C(=N/N=C3CCCCCC3)NC2=O)cc1` (centres undefined), the Potency was inconclusive: 11.2 µM [inhibitor, partial curve, poor fit]. In the case of `CC(=O)C1(C)CCC2C3C=C(C)C4=CC(=O)CCC4(C)C3CCC21C` (centres undefined), the Potency is reported as inconclusive: 7.08 µM [inhibitor, partial curve]. In the case of `CCOC(=O)CSc1nc2cc(OC)c(OC)cc2c2nc(-c3ccccc3)nn12`, the “activity change, negative = inhibition” value is reported as inactive: -11.5%. For `CC(Oc1ccc(Cl)cc1)c1ccc(C#N)c(=O)[nH]1` (centres undefined), the Potency was inconclusive: 12.6 µM [inhibitor, partial curve, poor fit]. `O=C(c1ccccc1)c1cccc2ccccc12` was tested, and the Potency was inconclusive: 14.1 µM [inhibitor, single point]. For `CS(=O)(=O)N1CCN(C(=O)c2ccc(-c3ccccc3)cc2)CC1`, the Potency was inconclusive: 28.2 µM [inhibitor, single point]. For `Cc1cc(NC(=O)c2cc(Cl)ccc2Cl)ccc1-c1cc2ccccc2oc1=O`, the Potency was inconclusive: 0.447 µM [inhibitor, full curve, poor fit]. With `Cc1ccc(C)c(NC(=O)N2CCN3CCCCC3C2)c1` (centres undefined) the “activity change, negative = inhibition” value was inactive: 18.6%. In the case of `Cc1cc(C)cc(NC(=O)Cn2c(=O)oc3cc(S(=O)(=O)N4CCC(C)CC4)ccc32)c1`, the Potency is reported as inconclusive: 12.6 µM [inhibitor, single point]. With `O=C(Cc1cccs1)Nc1ccc(-c2nc3ccccc3[nH]2)cc1` the Potency was active: 4.47 µM. With `N=c1sccn1CC(=O)Nc1ccc(SC(F)F)cc1` the Potency was inconclusive: 10 µM [inhibitor, single point]. In the case of `Cc1cccc(C)c1NC(=O)C(c1ccccc1OC(F)(F)F)N1CCN(C/C=C/c2ccccc2)CC1` (centres undefined), the Potency is reported as inconclusive: 22.4 µM [inhibitor, partial curve, poor fit]. With `CN(C)CCCCCN(C)Cc1cc2ccccc2o1` the Potency was inconclusive: 2.82 µM [inhibitor, partial curve, poor fit]. In the case of `COc1cccc2cc(C(=O)Oc3ccccc3)c(=O)oc12`, the “activity change, negative = inhibition” value is reported as inactive: 9.48%. In the case of `O=C(Nc1ccc(F)cc1F)c1cc(S(=O)(=O)N2CCCCC2)c[nH]1`, the Potency is reported as inconclusive: 3.16 µM [inhibitor, full curve]. With `O=C(Nc1nccs1)c1sc2cc(Cl)ccc2c1Cl` the Potency was inconclusive: 10 µM [inhibitor, partial curve, poor fit]. For `Cn1c(=S)c2[nH]c(SCC3CCCO3)nc2n(C)c1=O` (centres undefined), the Potency was inconclusive: 1.41 µM [inhibitor, full curve, poor fit]. With `OC(CNCc1ccccc1)Cn1ccc2ccccc21` (centres undefined) the Potency was inconclusive: 28.2 µM [inhibitor, single point]. In the case of `Cc1ccc(C)c(N2C(=O)N(Cc3cccc(C(F)(F)F)c3)c3ccccc3S2(=O)=O)c1`, the Potency is reported as inconclusive: 7.94 µM [inhibitor, partial curve, poor fit]. With `COc1cccc(CN2CCN(S(=O)(=O)c3ccc(Cl)s3)CC2)c1` the Potency was inconclusive: 17.8 µM [inhibitor, single point]. For `COC(=O)c1cccc(N2C(=O)C[C@](Sc3ccc(C)cc3)(C(=O)OC)[C@H]2c2ccccc2)c1`, the Potency was inconclusive: 11.2 µM [inhibitor, single point]. With `COc1ccc(NC(=O)c2cc(-c3cc(Cl)ccc3OC)n[nH]2)c(C)c1` the Potency was inconclusive: 28.2 µM [inhibitor, single point]. In the case of `Cc1onc(-c2ccccc2)c1C(=O)N/N=C/c1c[nH]c2ccccc12`, the Potency is reported as inconclusive: 31.6 µM [inhibitor, partial curve, poor fit]. `C=C1CCC[C@]2(C)C[C@H]3OC(=O)C(CNCCN(CC)CC)[C@H]3CC12` (some centres undefined) was tested, and the Potency was inconclusive: 31.6 µM [inhibitor, single point]. `CCSc1nnc(NC(=O)COc2ccccc2[N+](=O)[O-])s1` was tested, and the “activity change, negative = inhibition” value was inactive: 30.5%. With `C=CCn1c(SCCCC)nc(O)cc1=O` the Potency was inconclusive: 5.62 µM [inhibitor, partial curve, poor fit]. For `O=C(COC(=O)c1ccccc1Br)NCCc1ccc(F)cc1`, the Potency was inconclusive: 7.08 µM [inhibitor, partial curve, poor fit]. In the case of `COc1ccc(Cc2noc(CN(C)CCc3ccccc3)n2)cc1OC`, the “activity change, negative = inhibition” value is reported as inactive: -27.1%. For `O=S(=O)(Cc1ccccc1)Nc1cccc(Br)c1`, the Potency was inconclusive: 15.8 µM [inhibitor, partial curve, poor fit]. `CCOc1ccc(C(=O)Cc2cc3cccc(OC)c3oc2=O)cc1` was tested, and the Potency was inconclusive: 1.41 µM [inhibitor, partial curve, poor fit]. For `COc1ccc(-c2nnc(SCC(=O)N3CCc4ccccc43)o2)cc1OC`, the “activity change, negative = inhibition” value was inactive: 14.8%. For `CCN(CC)CCCNC(=O)c1cn(CC(C)C)c(=O)c2c1c1ccccc1n2C`, the Potency was inconclusive: 28.2 µM [inhibitor, single point]. `O=C(CN1CCCCC1)Nc1cc(Cl)ccc1Oc1ccccc1` was tested, and the Potency was inconclusive: 1 µM [inhibitor, full curve, poor fit]. In the case of `Cc1cccc(-c2noc(-c3ccccc3OCC(=O)Nc3ccccc3[N+](=O)[O-])n2)c1`, the “activity change, negative = inhibition” value is reported as inactive: 9.05%. For `Cc1nn(Cc2ccc(Cl)cc2)c(C)c1NC(=O)CCCn1nc(C)c([N+](=O)[O-])c1C`, the Potency was inconclusive: 10 µM [inhibitor, partial curve]. `COc1ccc(-n2cc(CNC3CCC(O)CC3)c(-c3cccc(F)c3)n2)cc1` (centres undefined) was tested, and the Potency was inconclusive: 12.6 µM [inhibitor, partial curve, poor fit].
